# In PMC4336329 (PLoS ONE, 2015):
# Hit rate of the full screen: of about 310,000 compounds, about 2,200 (0.71%) showed an effect of 50% or more. The effect is printed as a negative number. The list shows a part of the results.
# Biological target: human ether-à-go-go-related gene (hERG) potassium channel (human, UniProt Q12809)
# Test: primary screen, population patch clamp on CHO cells stably expressing hERG
# human ether-à-go-go-related gene (hERG) potassium channel, sequence (Q12809 whole entry, looked up): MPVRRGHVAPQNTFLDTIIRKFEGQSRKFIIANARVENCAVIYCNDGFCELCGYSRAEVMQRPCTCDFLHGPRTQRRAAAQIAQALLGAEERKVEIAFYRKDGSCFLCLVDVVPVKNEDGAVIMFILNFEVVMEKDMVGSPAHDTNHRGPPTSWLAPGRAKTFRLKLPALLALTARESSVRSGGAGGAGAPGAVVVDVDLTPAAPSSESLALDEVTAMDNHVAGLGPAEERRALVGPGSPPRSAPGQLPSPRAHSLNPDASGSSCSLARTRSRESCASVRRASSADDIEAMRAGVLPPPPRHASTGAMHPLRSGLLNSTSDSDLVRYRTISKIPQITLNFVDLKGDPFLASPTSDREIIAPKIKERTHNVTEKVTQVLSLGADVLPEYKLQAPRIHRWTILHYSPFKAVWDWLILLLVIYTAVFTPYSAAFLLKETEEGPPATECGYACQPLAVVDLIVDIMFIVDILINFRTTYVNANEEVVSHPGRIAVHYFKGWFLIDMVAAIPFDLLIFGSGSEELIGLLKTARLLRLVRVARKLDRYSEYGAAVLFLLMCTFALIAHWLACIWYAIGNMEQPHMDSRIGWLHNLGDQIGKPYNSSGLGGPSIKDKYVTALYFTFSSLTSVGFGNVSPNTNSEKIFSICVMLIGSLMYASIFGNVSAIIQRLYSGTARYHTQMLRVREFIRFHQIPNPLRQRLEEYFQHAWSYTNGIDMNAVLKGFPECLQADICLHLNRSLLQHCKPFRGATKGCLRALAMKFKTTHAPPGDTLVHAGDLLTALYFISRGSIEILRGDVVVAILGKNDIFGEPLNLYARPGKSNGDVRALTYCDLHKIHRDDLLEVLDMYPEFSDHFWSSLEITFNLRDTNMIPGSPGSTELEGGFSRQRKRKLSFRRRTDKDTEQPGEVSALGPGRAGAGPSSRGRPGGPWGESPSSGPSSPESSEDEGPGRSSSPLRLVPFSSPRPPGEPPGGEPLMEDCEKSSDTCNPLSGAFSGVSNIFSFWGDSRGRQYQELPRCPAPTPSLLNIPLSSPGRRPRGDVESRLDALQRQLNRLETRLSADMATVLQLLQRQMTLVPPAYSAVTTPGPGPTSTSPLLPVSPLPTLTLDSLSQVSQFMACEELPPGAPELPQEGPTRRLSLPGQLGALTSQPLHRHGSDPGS
row,Compound,"hERG current change (%, negative = inhibition) at 1uM"
1,CN1CCN(C(=S)c2cn(CCOc3ccccc3F)c3ccccc23)CC1,5.13%
2,CC(=O)NC1c2ccccc2C(=O)N1Cc1ccccc1 (stereo not shown),8.91%
3,CCOC(=O)C1(C(=O)OCC)CC1c1ccccc1 (stereo not shown),6.22%
4,O=CNc1ccc(S(=O)(=O)NCc2ccccc2)cc1,-0.826%
5,CCN(Cc1ccccc1)C(=O)CN1C(=S)NC(C)(C)CC1C (stereo not shown),3.12%
6,CC(=O)N(C)c1ccc(NC(=O)c2ccc([N+](=O)[O-])cc2Cl)cc1,7.8%
7,Cc1cccc(C)c1NC(=O)C1(NC(=O)c2cnccn2)CCCCC1,17.1%
8,COc1ccccc1NC(=O)C(C)N1C(=O)C2CCCCC2C1=O (stereo not shown),5.03%
9,O=C(N/N=C/c1cccc(OC(=O)c2ccco2)c1)c1ccc(F)cc1,-5.05%
10,COc1ccc(CCN2C(=O)CSC2=Nc2ccc(C)cc2C)cc1OC,13.7%
11,COc1ccc(N2C(=O)C3CCCN3C2c2cc(OC)c(OC)cc2OC)cc1 (stereo not shown),0.767%
12,CCOc1ccc(NC(=O)CN(C)C(=O)c2cc(-c3ccc(OC)cc3)nc3ccccc23)cc1OCC,-6.94%
13,CCOC(=O)c1c(NC(=O)CN2CCN(c3ccc(Cl)cc3)CC2)sc(C)c1C,7.11%
14,NC1=NC(=O)C2(COC(c3cccnc3)OC2)S1 (stereo not shown),14.7%
15,Cc1ccc(CNc2cccnc2)cc1,14.4%
16,COc1cc(/C=C(/NC(=O)c2ccccc2Cl)C(=O)O)cc(OC)c1OC,20.3%
17,CN(C(=O)COC(=O)c1cc2c(s1)CCCCC2)C1CCS(=O)(=O)C1 (stereo not shown),-2.75%
18,O=C(O)c1cc2c(ccc3ccccc32)o1,9.92%
19,CCC(C)C(=O)N1CCCC(c2nc(-c3cccs3)no2)C1 (stereo not shown),9.89%
20,CC(C)c1c(C(=O)N/N=C/c2cccc(OCc3ccccc3)c2)nnn1-c1nonc1N,26.9%
21,O=C(N/N=C/c1ccc(OCc2ccc(F)cc2)cc1)c1ccccc1,-2.12%
22,CCOC(=O)Cn1c2c(c(=N)c3c1CCC3)CCCC2.Cl,12.8%

row,Compound,"hERG current change (%, negative = inhibition) at 1uM"
1,COc1ccc(C/C(N)=N/OC(=O)c2cccc([N+](=O)[O-])c2)cc1,-20%
2,CC(C)COP(=O)(c1ccc(N(C)C)cc1)C(O)c1ccc(N(C)C)cc1 (stereo not shown),13%
3,O=C(NCc1ccccn1)c1cn(CCc2ccccc2)nn1,13%
4,O=C(Nc1nccs1)c1cc2sccc2n1Cc1ccc(F)cc1,-1.3%
5,COc1ccccc1CN1C(=O)c2ccncc2C1=O,-7.04%
6,CCOC(=O)C1=C(C)N=c2s/c(=C\c3ccc(C(=O)O)cc3)c(=O)n2C1c1ccc(OC)cc1OC (stereo not shown),11.8%
7,CCCCNC(=O)c1ccccc1NC(=O)CN(c1ccccc1)S(=O)(=O)N(C)C,7.01%
8,COc1cccc(NC(=O)Nc2ccccc2C(N)=O)c1,4.54%
9,O=C(O)C1CCCCC1C(=O)Nc1cc(Cl)ccc1Cl (stereo not shown),18.4%
10,COc1ccc(/C=N/Nc2cc(C)nc(NS(=O)(=O)c3ccc(C)cc3)n2)cc1,0.0432%
11,O=C(OCC(O)COC(=O)c1cccnc1)c1cccnc1,15.2%
12,Cc1ccc(C(=O)NNC(=O)COc2ccc(Cl)cc2C)o1,-4.39%
13,Cc1ccc(C)c(N2N=C(C(=O)OCc3nnc(-c4ccccc4)o3)CCC2=O)c1,5.14%
14,Cc1cccc(N2CCN(S(=O)(=O)c3c(C)[nH]c(C)c3C(=O)N3CCCCC3)CC2)c1C,5.05%
15,O=C(COc1ccc(-n2cnnn2)cc1)NC(=O)NCc1ccccc1,3.62%
16,CCN(CC)S(=O)(=O)c1cccc(-c2nnc(SCCCC(=O)c3ccccc3)o2)c1,3.3%
17,Cc1cnc(C(=O)Nc2ccc3c(c2)CCC3)cn1,10.7%
18,Cc1cccc(C)c1OCC(O)CNC(C)(C)C.Cl (stereo not shown),11.6%
19,Cc1ccc(C)c(NC(=O)Nn2cnnc2)c1,12.2%
20,O=[N+]([O-])c1ccc(N2CCCCC2)cc1N1CCOCC1,2.47%
21,CC(Oc1ccc(Cl)cc1Cl)C(=O)NNC(=O)C(=O)N1CCCC1 (stereo not shown),16%
22,Cc1cccc(-c2nnc(SCC(=O)Nc3ncccn3)n2C)c1,8.58%

row,Compound,"hERG current change (%, negative = inhibition) at 1uM"
1,Cc1cccc(C(=O)N2CCN(c3ccccn3)CC2)c1,11.7%
2,CCOC(=O)c1ccc(NC(=O)C2C3C=CC(O3)C2C(=O)O)cc1 (stereo not shown),16.8%
3,Cc1c(C(=O)CN2CCCC(C)(C)C2)c2ccccc2n1C,8.16%
4,Br.Cn1c(=N)n(CC(=O)C(C)(C)C)c2ccccc21,-11%
5,O=C(Nc1ccc2ncccc2c1)c1ccccc1,11.5%
6,CC1(C)C/C(=N/Nc2ccc([N+](=O)[O-])cc2[N+](=O)[O-])C(C)(C)O1,10.6%
7,O/N=C1\CCCc2nnc3c(c21)CCCC3,13%
8,Cc1ccc(S(=O)(=O)N2CCCCC2C(=O)N(C)c2ccccc2)cc1 (stereo not shown),5.34%
9,O=C(c1ccc(Br)o1)N1CCC(c2nc3ccccc3[nH]2)CC1,11.9%
10,O=C(O)CSC12CC3CC(C1)CC(C(=O)O)(C3)C2,10.6%
11,COc1ccc(C2C(C#N)=C(N)N(c3cccnc3)C3=C2C(=O)CC(C)(C)C3)cc1OC (stereo not shown),-1.84%
12,CCN1C(=O)c2cccc3c(NC(=O)c4cccc(N5C(=O)CCC5=O)c4)ccc1c23,7.58%
13,CN(C)C(CNC(=O)Cc1ccc(Br)cc1)c1ccccc1 (stereo not shown),10.3%
14,Cc1cccc(NNC(=O)C2CCC2)c1,1.94%
15,COc1ccc(CNC(=O)c2ccc(NC(=O)C3CCCO3)cc2)cc1 (stereo not shown),0.478%
16,Cc1noc(C)c1COc1cccc(C(=O)N2CCN(C/C=C/c3ccccc3)CC2)c1,11.6%
17,CCOC(=O)N1CCN(C(=O)CNC(=O)c2nn(-c3ccc(OC)cc3)c(=O)c3ccccc23)CC1,7.33%
18,O=C(Nc1ccc(OC(F)(F)C(F)F)c(NC(=O)c2cccc(F)c2)c1)c1cccc(F)c1,2.29%
19,COC(=O)C1(CCSC)NC(c2ccc(OC)cc2OC)C2C(=O)N(c3cccc(C(C)=O)c3)C(=O)C21 (stereo not shown),14.9%
20,CN(C(=O)c1ccc(-c2nn(C)c(=O)c3ccccc23)cc1)c1ccccc1,2.6%
21,O=C(Nc1ccc(Oc2ncnc3cc(Cl)ccc23)nc1)c1cccs1,11.6%
22,Cc1cc(-c2nnc(CCC(=O)N3CCN(Cc4cccnc4)CC3)o2)c(C)o1,6.73%

row,Compound,"hERG current change (%, negative = inhibition) at 1uM"
1,CCC1CCCCN1C(=O)CSc1nnc(-c2c[nH]c3ccccc23)o1 (stereo not shown),15.2%
2,COc1cccc(-c2c(NC(=O)c3ccco3)oc3ccc(Cl)cc3c2=O)c1,8.6%
3,C/C(=N\O)c1oc2ccc3c(C)cc(=O)oc3c2c1C,16.9%
4,CN(CC(=O)NCCN1CCCCCC1)S(=O)(=O)c1cccc2nsnc12,9.42%
5,Cc1ccc(Cc2c(C)c(C#N)c3[nH]c4ccccc4n3c2=O)cc1,9.52%
6,CC1(c2ccccc2)NC(=O)N(CC(=O)Nc2cc(Cl)ccc2N2CCOCC2)C1=O (stereo not shown),12.1%
7,CCCNc1ncccc1C(N)=O,8.51%
8,O=C(CSc1nnc(NC(=O)c2ccccc2F)s1)NC1CC1,20%
9,Cc1cc(S(=O)(=O)N(Cc2ccc(F)cc2)CC2CCCO2)ccc1-n1cnnn1 (stereo not shown),0.35%
10,Br.CCO.NCCCCCC(=O)OC1N=C(c2ccccc2Cl)c2cc(Br)ccc2NC1=O (stereo not shown),6.47%
11,O=C(CSc1cccc2cccnc12)OCC(=O)c1ccc(Br)cc1,-3.27%
12,COc1ccc(NC(=O)CSc2nccn2Cc2ccccc2)cc1,11.6%
13,O=C(O)CC(c1ccccc1)N1C(=O)c2cccc([N+](=O)[O-])c2C1=O (stereo not shown),13.8%
14,Cc1cc(C)c(Cn2c(=O)n(CCCC(=O)NCc3ccco3)c(=O)c3ccccc32)c(C)c1,12%
15,CCN(CC)C(=O)Oc1ccc2c(c1)O/C(=C\c1ccco1)C2=O,13.6%
16,Cc1cc(C)n(CC(O)Cn2c3ccccc3c3ccccc32)n1.[Cl-] (stereo not shown),-0.723%
17,Cc1cnc(C(=O)OCC(=O)Nc2cccc(Cl)c2)cn1,15.1%
18,CC1CCc2c(sc3ncnc(SC(C)C(=O)NCC4CCCO4)c23)C1 (stereo not shown),10.7%
19,COCCCNC(=O)CCCC(=O)NCCCOC,17.7%
20,Cc1ccc(C(C(=O)NC2CCCC2)N(C(=O)c2csnn2)c2cccc(F)c2)o1 (stereo not shown),15.4%
21,Cc1ccc(CNCC(O)(c2ccccc2)c2ccccc2)cc1,10.8%
22,Cc1ccccc1N1CCN(S(=O)(=O)C[C@]23CCC(CC2NC(=O)[C@@H](N)CCS(C)(=O)=O)C3(C)C)CC1.Cl (stereo partly shown),13%
